The values below come from PubChem BioAssay AID488969 (Vanderbilt High Throughput Screening Facility, 2010).

The structures appear in SMILES notation. The full ranking holds about 110,000 compounds; the median of “z-score” is about -0.1, and the highest 2% start at about 2. The list shows a part of the results.

The target in the test is Metabotropic glutamate receptor 8 (Rattus norvegicus) (UniProt P70579). Kind of test: rat mGluR8 modulators via GIRK flux, primary screen, cell-based, thallium flux, HTS (AID 488969). To be noted: HEK293 rat mGluR8, GIRK (G protein-gated inwardly rectifying potassium channel) thallium flux, FluoZin2; at 10 µM; stronger effect = higher value; submaximal glutamate (EC20) added with thallium.
Chain of UniProt P70579 (P70579 whole entry, looked up): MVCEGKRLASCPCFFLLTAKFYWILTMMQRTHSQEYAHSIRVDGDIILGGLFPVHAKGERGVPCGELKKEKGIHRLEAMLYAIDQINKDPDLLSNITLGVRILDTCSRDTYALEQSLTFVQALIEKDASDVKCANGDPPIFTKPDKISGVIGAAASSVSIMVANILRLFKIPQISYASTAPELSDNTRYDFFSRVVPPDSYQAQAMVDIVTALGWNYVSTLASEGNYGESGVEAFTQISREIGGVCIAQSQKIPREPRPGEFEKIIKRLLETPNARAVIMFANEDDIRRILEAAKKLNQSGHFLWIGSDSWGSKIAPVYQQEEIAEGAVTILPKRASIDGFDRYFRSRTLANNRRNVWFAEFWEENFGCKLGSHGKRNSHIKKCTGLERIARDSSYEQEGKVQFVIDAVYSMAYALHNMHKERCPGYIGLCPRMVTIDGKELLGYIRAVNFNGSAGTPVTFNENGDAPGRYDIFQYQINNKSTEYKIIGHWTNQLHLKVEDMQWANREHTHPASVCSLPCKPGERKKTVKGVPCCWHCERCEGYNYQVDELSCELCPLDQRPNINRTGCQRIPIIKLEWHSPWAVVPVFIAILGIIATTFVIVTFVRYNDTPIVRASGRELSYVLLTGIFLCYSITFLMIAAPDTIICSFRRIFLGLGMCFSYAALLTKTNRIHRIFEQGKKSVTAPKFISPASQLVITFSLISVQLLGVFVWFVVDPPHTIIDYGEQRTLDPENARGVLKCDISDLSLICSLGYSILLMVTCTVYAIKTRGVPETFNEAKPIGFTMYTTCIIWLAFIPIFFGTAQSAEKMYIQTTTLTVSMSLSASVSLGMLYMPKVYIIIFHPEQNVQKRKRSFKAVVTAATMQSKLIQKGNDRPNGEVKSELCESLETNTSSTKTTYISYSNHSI
In the case of `CN1CCN(c2nc(-c3ccncc3)nc3ccccc23)CC1`, the z-score is 0.0796. On to `CC(C)(C)NC(=O)C(=O)N/N=C/c1ccc(Br)cc1`, for which the z-score was -0.109.

On to `Brc1cc2c(cc1/C=N/Nc1nc(N3CCOCC3)nc(N3CCOCC3)n1)OCO2`, for which the z-score is -0.639. Regarding `CSc1cccc(NC(=O)CSc2ccc(Cl)cc2)c1`, the z-score was found to be 0.0929. `Cc1cccc(C)c1NC(=O)C(NC=O)c1ccccc1Cl` (configuration not stated) came in with a z-score of 0.171. For the compound `COc1ccc(OCC(=O)Nc2ccccc2C(=O)N2CCCC2)cc1`, the z-score was -0.288. The compound `Cc1cc(-c2c(C)[nH]n(-c3ccc(Cl)cc3)c2=O)n(-c2ccccc2)n1` came in with a z-score of 0.122.

On to `CC1CCc2nn(CC(=O)NCCN3CCOCC3)cc2C1` (configuration not stated), for which the z-score was 0.4. In turn, `O=[N+]([O-])c1ccc2c(c1)oc1ccccc12` gave a z-score of 0.356. For `CCN(CC)CCN1C(=O)C(=O)/C(=C(/O)c2ccc(C)cc2)C1c1ccncc1` (configuration not stated) the value was 0.189. As for `CS(=O)(=O)N1CCN(c2ccc(C(=O)NC3C4CC5CC(C4)CC3C5)cc2[N+](=O)[O-])CC1` (configuration not stated), the z-score is -0.165.

Take `Cc1ccc(S(=O)(=O)/N=C2/C=C(Sc3ncn[nH]3)C(=O)c3ccccc32)c(C)c1`: the z-score is -0.256. Regarding `CCCNC1=C(N(C(C)=O)c2cccc(F)c2)C(=O)c2ccccc2C1=O`, the z-score is -1.55. The same measure for `Cc1ccc(N=c2ssnc2Cl)cc1`: 0.0301; for `CC1CN(C(=O)C2(C)CC2(Br)Br)CC(C)O1` (configuration not stated): -0.00911.

With `Cc1c(CNC2CCC(C)CC2)c(C(=O)O)c(C)n1Cc1ccccc1` (configuration not stated), the z-score was -0.344. Turning to `O=C(O)c1cc(NS(=O)(=O)c2ccc(N3CCCCC3)c([N+](=O)[O-])c2)cc(C(=O)O)c1`, the z-score was -0.105. For `CCOCCN1CCN(c2c(C)c(C)nc3cc(-c4cc(OC)cc(OC)c4)nn23)CC1`, the z-score was -0.826. Turning to `CN(C)/C=C1\C(=O)N(c2ccc(Cl)cc2)CS1(=O)=O`, the z-score was -0.082. The compound `CC1CCN(C(=O)CN2C(=O)C(=O)c3ccccc32)CC1` yielded a z-score of 1.18. Take `CCN(CC)CC(C)OC(=O)c1cc(OC)c(OC)c(OC)c1` (configuration not stated): the z-score was -0.125. For `CCOC(=O)c1sc(NC(=O)c2cccnc2)c(C#N)c1C` the value was -0.375; for `CN(C)C(CNC(=S)Nc1ccccc1)c1cccnc1` (configuration not stated), -0.114. In the case of `CC(C)(C)OC(=O)NCCc1nnc(SCc2ccc(Cl)cc2)o1`, the z-score is -0.444. Turning to `O=S(=O)(Nc1nc2ccccc2[nH]1)c1ccc2ccccc2c1`, the z-score is -0.228. Turning to `CCOC(=O)c1[nH]c(C)c(C(=O)c2cc(F)ccc2F)c1C`, the z-score was -0.561. The same measure for `COc1cc(NC(=O)CS(=O)(=O)c2ccccc2)cc(OC)c1OC`: 1.2; for `O=C(Nc1nccs1)C1CCCN1S(=O)(=O)c1ccc(F)cc1` (configuration not stated): -0.318. As for `CCC(C)C1NC(=S)N(Cc2ccccc2)C1=O` (configuration not stated), the z-score is -0.14.

As for `Cc1cc(C)c(S(=O)(=O)NCCC2CCCN2C)c(C)c1` (configuration not stated), the z-score is -0.112. The same measure for `O=c1ncn(-c2ccc(F)cc2)c2ncccc12`: -0.146; for `O=C(O)c1ccc(COc2ccccc2[N+](=O)[O-])o1`: -0.128; for `Cc1snc(S(=O)(=O)/C(C#N)=N/Nc2ccc(C(F)(F)F)cc2)c1C#N`: -1.22. Turning to `CCOC(=O)c1ccc(NC(=O)C(=O)NCc2ccncc2)cc1`, the z-score turned out to be 0.121. On to `CC1CCN(C(=O)COC(=O)c2cc(Cl)cc(Cl)c2N)CC1`, for which the z-score is -0.0469.

`CC(C(=O)NCc1ccccc1)N1C(=O)C2CC=C(Cl)CC2C1=O` (configuration not stated) came in with a z-score of 0.303. `c1ccc(-c2noc(COc3ccc4c(c3)OCO4)n2)cc1`: the z-score came to 0.0125. `CC(=O)c1ccc(OCCN2CCOCC2)cc1`: the z-score was -0.117. Compound `O=C(CSc1ncnc2c1cnn2CCc1ccccc1)Nc1ccc(F)cc1` registered a z-score of 0.129. For `COc1cc(/C=C2\SC(N3CCc4ccccc4C3)=NC2=O)cc(OC)c1OC` the value was -0.793; for `CCC(NC(=O)Nn1cnnc1)(C(F)(F)F)C(F)(F)F`, 0.315. As for `Cc1cccc(N2C(=O)CC(N3CCC(c4nc5ccccc5[nH]4)CC3)C2=O)c1` (configuration not stated), the z-score is -0.364. The compound `CC(C)(CS(=O)(=O)[O-])NC(=O)CC[N+](C)(C)CCO` showed a z-score of 0.287.

Take `O=C(CSc1nc(-c2ccccc2)cs1)Nc1ccccc1[N+](=O)[O-]`: the z-score was -0.0875. On to `CCCOc1ccc(C(=O)NCc2ccco2)cc1`, for which the z-score was -0.392. In turn, `COc1cc2c(cc1NC(=O)Nc1cccc(C)c1)oc1ccccc12` registered a z-score of 2.68.

`CCc1c(C(=O)OC)nnc2cc(C)nn12`: the z-score is -0.267.

As to `CN(C)CCC#CC(O)(c1ccccc1)c1ccccc1`, the z-score was -0.348. In turn, `C=CCn1c(O)c(N=NC(=O)c2ccc3c(c2)OCO3)c2ccccc21` displayed a z-score of 0.105.

Consider `CCCOc1ccc(-c2cnc(SCC(N)=O)nc2N)cc1`, for which the z-score turned out to be 0.0622. `NS(=O)(=O)c1ccc(CCNc2nc(CN3CCCCC3)nc3sc4c(c23)CCC4)cc1`: the z-score was determined as 0.0511.

Regarding `COc1ccc(-n2cnc3ccccc32)cc1`, the z-score turned out to be 0.277. Take `O=C(/C=C/c1ccco1)N1CCN(C/C=C/c2ccccc2)CC1`: the z-score was -0.35.

In the case of `C1=CC2CCC1ON2c1ccccc1` (configuration not stated), the z-score was -0.0185. Regarding `O=S(=O)(NCCOCC(F)(F)F)c1ccc2oc3ccccc3c2c1`, the z-score was 0.57.

On to `Cc1ccc(C)c(-n2c(CNC(=O)c3ccco3)nnc2SCC(=O)Nc2nnc(C)s2)c1`, for which the z-score was -0.524. Consider `O=C(Nc1nc2ccccc2s1)C1CC(=O)N(c2ccc(Cl)cc2)C1` (configuration not stated), for which the z-score stood at 0.049. The same measure for `COC(=O)CSc1nnc(C)n1-c1cccc(C#N)c1`: -0.0426; for `CCOc1ccc(CCNC(=O)Cn2cccc2C(=O)c2ccccc2C)cc1OCC`: -0.299.

Take `Cn1cnnc1Sc1cc(N2CCN(S(=O)(=O)c3ccc(Cl)c(Cl)c3)CC2)ccc1[N+](=O)[O-]`: the z-score is 0.518. For the compound `Cc1ccc(CNC(=O)CN2CCN(Cc3ccc(C)cc3)C2=O)cc1`, the z-score is -1.28.

On to `Cc1ccc(C)c(OCCn2cc(/C=C(\C#N)C(=O)NCC3CCCO3)c3ccccc32)c1` (configuration not stated), for which the z-score is 0.314. As to `CCn1c2ccccc2c2cc(NC(=O)C/C(C)=N/NC(=O)c3ccccc3N)ccc21`, the z-score is -0.0756. `C=C(C)COc1ccc(-c2n[nH]c(C)c2-c2ccccc2)c(O)c1` displayed a z-score of 0.924. As for `N#CCCN(C(=O)CN1C(=O)NC2(CCCC2)C1=O)c1ccccc1F`, the z-score was -0.195.

`O=C1CCC(=O)c2oc3ccccc3c2N1`: the z-score is -0.303.

Turning to `Cc1cccc(OCC(=O)OC2CCN(C)CC2)c1`, the z-score worked out at 0.237. For `CCOc1nc(NCCO)nc(Nc2ccc([N+](=O)[O-])cc2)n1`, the z-score is -0.104. Turning to `Cc1c(NC(=O)CN2C(=O)c3ccccc3C2=O)c(=O)n(-c2ccccc2)n1C`, the z-score is -0.51. `c1ccc(Sc2cnc3ccccc3n2)cc1` gave a z-score of 0.183. For `CCc1ccc(NS(=O)(=O)c2ccc(OC)c(C)c2)cc1` the value was -0.118. For `O=C(CCCSc1nc2ccccc2[nH]1)N1CCN(c2ccc([N+](=O)[O-])cc2)CC1` the value was -0.0483.
